The campaign covered roughly 310,000 compounds. About 14,000 (4.5%) showed an effect of 50% or more. Effects have a minus sign here. The list shows a part of the results.
These compounds were tested against human ether-à-go-go-related gene (hERG) potassium channel (human, UniProt Q12809) (assay: primary screen, population patch clamp on CHO cells stably expressing hERG).
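Further: peak tail current of the secondary pulse compared with the same well before compound.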

human ether-à-go-go-related gene (hERG) potassium channel, sequence (Q12809 whole entry, looked up): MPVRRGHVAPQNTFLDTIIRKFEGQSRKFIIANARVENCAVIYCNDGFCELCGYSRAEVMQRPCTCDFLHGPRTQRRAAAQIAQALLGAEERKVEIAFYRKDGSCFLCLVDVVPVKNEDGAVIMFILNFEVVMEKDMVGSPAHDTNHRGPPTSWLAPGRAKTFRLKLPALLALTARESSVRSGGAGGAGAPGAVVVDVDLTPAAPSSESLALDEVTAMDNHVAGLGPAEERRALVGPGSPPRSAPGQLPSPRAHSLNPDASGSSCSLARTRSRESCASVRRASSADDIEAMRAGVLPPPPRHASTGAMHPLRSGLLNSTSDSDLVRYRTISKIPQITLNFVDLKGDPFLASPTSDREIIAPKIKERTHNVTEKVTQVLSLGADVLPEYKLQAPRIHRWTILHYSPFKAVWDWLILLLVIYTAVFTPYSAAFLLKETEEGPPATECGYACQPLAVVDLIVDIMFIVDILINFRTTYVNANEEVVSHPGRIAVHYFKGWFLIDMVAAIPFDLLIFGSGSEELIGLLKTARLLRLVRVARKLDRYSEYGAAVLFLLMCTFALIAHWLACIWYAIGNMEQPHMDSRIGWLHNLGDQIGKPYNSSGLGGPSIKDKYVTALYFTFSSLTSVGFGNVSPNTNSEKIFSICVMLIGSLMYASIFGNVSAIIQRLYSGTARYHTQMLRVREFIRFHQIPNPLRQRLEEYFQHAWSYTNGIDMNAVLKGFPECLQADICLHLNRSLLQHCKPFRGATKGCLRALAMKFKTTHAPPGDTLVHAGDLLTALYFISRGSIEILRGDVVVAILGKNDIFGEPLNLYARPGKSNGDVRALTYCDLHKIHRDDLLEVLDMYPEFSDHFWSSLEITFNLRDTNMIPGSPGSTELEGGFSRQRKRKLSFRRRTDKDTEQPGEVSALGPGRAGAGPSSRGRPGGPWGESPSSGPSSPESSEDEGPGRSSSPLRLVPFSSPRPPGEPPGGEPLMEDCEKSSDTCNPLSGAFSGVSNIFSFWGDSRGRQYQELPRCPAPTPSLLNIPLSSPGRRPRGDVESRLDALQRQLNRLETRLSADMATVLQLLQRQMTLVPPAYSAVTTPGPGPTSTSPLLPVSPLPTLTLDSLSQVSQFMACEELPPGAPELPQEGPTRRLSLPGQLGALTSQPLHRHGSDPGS

Compound	hERG current change (%, negative = inhibition) at 10uM
Cc1nc(NC(=O)/C=C/c2ccc(Cl)cc2Cl)sc1C(=O)N(C)C	15.4%
CN(C)CCNC(=O)c1c(CSc2ccccc2)noc1C(=O)NCc1ccccc1	-37.1%
O=C(COC(=O)CCC(=O)c1ccc2c(c1)OCCO2)NCc1ccc2c(c1)OCO2	6.22%
O=C(NCc1ccccc1)c1ccccc1Br	-3.91%
COC(=O)N/N=C/c1ccc(OCCSc2ccc(Cl)cc2)c(OC)c1	-6.11%
CN1CCC(NC(=O)NC2CCCCC2)CC1	11.9%
CC1(C)Cc2c(cnn2-c2ccccc2)C(NC(=O)CCN2CCCCO2)C1 (stereo not drawn)	7.93%
CC(=O)c1nnn(-c2ccc([N+](=O)[O-])cc2)c1C	2.06%
O=C(CC1SC(=Nc2ccc(OC(F)F)cc2)N(CCC2=CCCCC2)C1=O)Nc1ccccc1F (stereo not drawn)	15.7%
N#C/C=C1\n2c(nc3ccccc32)OC12CCCCC2	-32.6%
COc1ccc(OC(C)C(=O)Nc2ccccc2C(F)(F)F)cc1 (stereo not drawn)	-14.5%
Cc1cccc(C(=O)NCCc2ccc(S(N)(=O)=O)cc2)c1[N+](=O)[O-]	-11.6%
Cc1nc(C)c(-c2ccnc(/N=C/NO)n2)s1	6.75%
CC(OC(=O)C1CCCCC1)c1nc2ccccc2[nH]1 (stereo not drawn)	-7.93%
CC(Oc1ccccc1)C(=O)Nc1nc2c(s1)C(=O)CC(C)(C)C2 (stereo not drawn)	11.8%
CSCCC(=O)N1CCC(n2nccc2NC(=O)c2ccc3c(c2)OCO3)CC1	4.77%
Cc1ccc(O)c(/C=N/NC(=O)CN2CCCC2)c1	10.8%
CCOC(=O)CSc1nc2cc(C(=O)N3CCC(C(N)=O)CC3)ccc2c(=O)n1-c1ccccc1	-16.2%
CN1CCN(Cc2nc(N)nc(Nc3ccc4c(c3)OCCO4)n2)CC1	-26.1%
Cn1c(C(=O)O)cc2c(=O)n3ccccc3nc21	21%
Cn1nc(C(=O)NCc2ccccc2Cl)c2c1-c1ccccc1S(=O)(=O)C2	-14.4%
CN(C)C(=O)c1c(NC(=O)c2ccccc2)sc2c1CCC2	11%
CCc1ccccc1NC(=O)CSc1nnc([C@@H]2CCCN2C(=O)OC(C)(C)C)o1	-1.99%

Compound	hERG current change (%, negative = inhibition) at 10uM
COc1ccccc1-c1coc2c(CN3CCN(CCO)CC3)c(O)ccc2c1=O	17.7%
Cc1ccc(NS(=O)(=O)c2ccc(C(=O)N3CCN(S(=O)(=O)c4ccccc4)CC3)cc2)cc1	-6.03%
COc1ccccc1NC(=S)N1CCN(c2cccc(C)c2C)CC1	1.37%
CCC(Sc1nc(N)cc(=O)[nH]1)C(=O)NC(C(=O)OC)c1ccccc1 (stereo not drawn)	0.59%
CC(/C=N/NC(=O)c1nnn(-c2nonc2N)c1CN1CCCCC1)=C\c1ccccc1	6.51%
O=S(=O)(NCc1ccccc1)c1ccc(S(=O)(=O)N2CCCC2)cc1	-0.882%
Cc1nc(SCC(=O)NC2CCCCC2)[nH]c(=O)c1C	3.8%
CCCOc1ccc(C(=O)Nn2c(C)nc3ccccc3c2=O)cc1	-3.72%
O=C(CSc1ccc2nnc(-c3ccccn3)n2n1)N1CCN(c2ccccc2)CC1	-86.7%
Cc1ccsc1C(=O)N1CCCC(CCC(=O)NCc2ccccc2F)C1 (stereo not drawn)	-7.46%
CCOC(=O)c1cc(C)n(CCCN2CCOCC2)c1C	11%
COc1ccc(C2C(C(=O)c3sc(C)nc3C)=C(O)C(=O)N2CCN(C)C)cc1 (stereo not drawn)	-6.4%
CCC12C(=O)C(CC)(C(c3ccccc3)=C1c1ccccc1)[C@@H]1C(=O)N(c3ccc(C)cc3)C(=O)C12 (stereo partly drawn)	14.5%
OCCOCCNc1ncnc2nc[nH]c12	9.58%
C#CC1CCCCC1NC(=O)Nc1cnccc1C(F)(F)F (stereo not drawn)	11.8%
COC(=O)c1ccccc1S(=O)(=O)C(C)(C)C	-1.71%
COC(=O)C(NC(=O)c1ccc(C)cc1)(Nc1cccc(C)n1)C(F)(F)F (stereo not drawn)	-11.7%
COc1ccc(N2C(=O)CSC2c2ccc(F)c(F)c2)cc1 (stereo not drawn)	13.1%
C=CCN(C(=O)c1csnn1)C(C(=O)NC1CCCCC1)c1ccccc1F (stereo not drawn)	3.38%
COc1cc(OC)c2c(c1O)OC(c1ccccc1)CC2=O (stereo not drawn)	18.9%
O=C(O)C(=O)O.O=[N+]([O-])c1ccccc1S(=O)(=O)N1CCN(Cc2ccsc2)CC1	-38.1%
C=CCSc1nn2c(=O)c3ccccc3nc2s1	-24.5%
